# From PubChem BioAssay AID624296 (National Center for Advancing Translational Sciences (NCATS), 2012)
# Hit rate of the full screen: of about 350,000 compounds, about 9,900 (2.8%) were called active. Inconclusive results, whose numbers are uncertain, are shown with a selection of clear calls. Calls come from the whole dose curve; as a rule, active = well fitted activation curve with a large enough effect; inconclusive = small, poorly fitted or top-dose-only effect; inactive = no such curve, though single readings can be large or run the other way. No potency is given beside an inconclusive call; the fits are too rough.
# Assay: A quantitative high throughput screen for small molecules that induce DNA re-replication in MCF 10a normal breast cells. Note: nearly all actives have a fitted effect of over 50% in size.
# Conditions: MCF 10A DNA re-replication, Hoechst nuclear intensity, 48 h; series mostly up to 46.1 µM
# Potency is the fitted concentration of half-maximal effect; tags give direction and shape of the fitted curve.
row,Compound,Potency
1,Cn1c(=O)c2c(ncn2CC(COCc2ccccc2)OCc2ccccc2)n(C)c1=O (stereo not given),inactive
2,O=C(N/N=C1/CCCc2ccccc21)C(c1ccccc1)c1ccccc1,"inconclusive [activator, partial curve, poor fit]"
3,C[C@H](NC(=O)c1[nH]cnc1C(=O)Nc1ccc(CNC(=O)OC(C)(C)C)cc1)C(=O)OCc1ccccc1,"inconclusive [activator, single point]"
4,Cc1cccc(NC(=O)c2sc3nc4c(c(-c5ccco5)c3c2N)CCC4)c1,active: 13 µM
5,CCCN1C(=O)c2ccccc2NC1c1ccc(Cl)c(Cl)c1 (stereo not given),inactive
6,COc1ccc(C(=O)N2c3cc4c(cc3C(C)=CC2(C)C)OCO4)cc1,"inconclusive [activator, single point]"
7,COc1cccc(CC(=O)Nc2ccc(-c3csc(C)n3)cc2)c1,active: 9.2 µM
8,COCC(=O)N/N=C\c1ccc(OC/C=C/c2ccccc2)c(OC)c1,"inconclusive [activator, partial curve, poor fit]"
9,CN(C)S(=O)(=O)N1CCN(C(=O)c2cccs2)CC1,"inconclusive [activator, single point]"
10,COC(=O)C1(Cc2cc(-c3ccccc3)no2)CCN(C(=O)OC(C)(C)C)CC1,"inconclusive [activator, partial curve, poor fit]"
11,CC(C)c1ccc(/C=C/C(=O)NC(=S)Nc2ccc(CN3CCOCC3)cc2)cc1,active: 23.1 µM
12,Cc1nnc(C)n1/N=C/c1cc2ccccc2nc1Cl,"inconclusive [activator, partial curve, poor fit]"
13,CCN(C[C@H]1N[C@@](Cc2ccccc2)(C(=O)OC)[C@H]2C(=O)N(C)C(=O)[C@@H]12)S(=O)(=O)c1ccccc1,"inconclusive [activator, full curve]"
14,COc1ccc2nc(-c3ccccc3)cc(C(=O)OCC(=O)N3CC(C)OC(C)C3)c2c1 (stereo not given),inactive
15,Cc1nn(-c2ccccc2)c2c1C(c1ccc(Br)s1)C(C#N)=C(N)O2 (stereo not given),"inconclusive [activator, single point]"
16,O=C(CSc1nc(C2CC2)nc2sc3c(c12)CCCC3)NCc1ccco1,active: 16.4 µM
17,CN(C(=O)c1cccc(NC(=O)Cc2ccc([N+](=O)[O-])cc2)c1)C1CCC1,"inconclusive [activator, partial curve, poor fit]"
18,OCC1(CCCc2ccccc2)CCN(C2CCSCC2)CC1,"inconclusive [activator, single point]"
19,Cc1cccc2cc(CN(CCCO)C(=O)Nc3cccc(Cl)c3)c(=O)[nH]c12,"inconclusive [activator, partial curve, poor fit]"
20,CN(C)C1(CN=Cc2cc(Cl)cc([N+](=O)[O-])c2O)CCCCC1,"inconclusive [activator, single point]"
21,COc1cc(C(=O)NCC(=O)N2CC=C(c3ccccc3)CC2)cc(OC)c1OC,inactive
22,COC(=O)c1cc(=O)nc2sc(-c3ccc(F)cc3)nn12,inactive
23,COc1ccc(C(=O)CSc2nc(C(C)(C)C)nc3ccccc23)cc1,"inconclusive [activator, single point]"
24,CSc1cccc(NC(=S)N2CCC(c3ccccc3)C2)c1 (stereo not given),inactive

row,Compound,Potency
1,O=C(Nc1cc(Sc2ccccn2)cc([N+](=O)[O-])c1)c1ccc(Cl)cc1,"inconclusive [activator, full curve]"
2,CN1/C(=C\C(=S)NC(=O)c2ccc([N+](=O)[O-])cc2)C(C)(C)c2ccccc21,inactive
3,CC1CCN(S(=O)(=O)c2ccc(NC(=O)CN3CCN(C)CC3)cc2)CC1,"inconclusive [activator, partial curve, poor fit]"
4,Cc1ccc(Cn2nnc3c(=O)[nH]c(C4CCN(S(=O)(=O)c5ccc(C)cc5)CC4)nc32)cc1,"inconclusive [activator, single point]"
5,Cc1cc(C)c(OCC(=O)Nc2ccc(S(=O)(=O)N3CCCC3)cc2)c(C)c1,"inconclusive [activator, single point]"
6,Cc1ccccc1N1CCN(C(=O)C2CCCCC2)CC1,inactive
7,O=C(/C=C/c1ccco1)c1cccc([N+](=O)[O-])c1,inactive
8,COCCn1c(SCC(=O)NC2CCCC2)nnc1C(C)C,inactive
9,Cc1cccc(NC(=O)CSc2nnc(-c3ccco3)c(-c3ccco3)n2)c1C,"inconclusive [activator, single point]"
10,Cc1ccc(C(C(=O)NC2CCCCC2)N(Cc2ccco2)C(=O)C2COc3ccccc3O2)o1 (stereo not given),"inconclusive [activator, single point]"
11,Cc1cccc(-n2cnc3sc(C)c(C)c3c2=O)c1,inactive
12,Cc1ccc2cc(C(c3nnnn3Cc3ccccc3)N3CCN(c4ccccc4)CC3)c(=O)[nH]c2c1 (stereo not given),"inconclusive [activator, partial curve, poor fit]"
13,CN(C)CCCNC(=O)c1cc2c3ccccc3n(C)c2s1,inactive
14,CC1=Nc2cc(C(=O)NCC3CCCO3)ccc2Sc2ccc(C)cc21 (stereo not given),active: 2.06 µM
15,O=C(Cc1ccc(S(=O)(=O)N2CCOCC2)s1)NCCc1ccc(F)cc1,inactive
16,Cc1ccc(NC(=O)CCSc2nnc(Cc3ccccc3)o2)cc1,inactive
17,COc1ccccc1N1CCN(C2CCCN(Cc3ccc(Cl)cc3)C2)CC1 (stereo not given),inactive
18,Cc1cc(C(=O)N/N=C/c2ccc(-c3ccccc3Cl)o2)n[nH]1,"inconclusive [activator, single point]"
19,CC1(c2nnc(-c3ccc(F)cc3)o2)CC(c2ccccc2)=NO1 (stereo not given),inactive
20,O=C(NC1CCS(=O)(=O)C1)c1cn(-c2ccccc2)nc1-c1ccccc1 (stereo not given),"inconclusive [activator, single point]"
21,COCCCN=Cc1c(C)[nH]n(-c2ccc(Br)c(C)c2)c1=O,"inconclusive [activator, full curve]"
22,CCCCCOc1ccc(CSC(=N)N)cc1[N+](=O)[O-],"inconclusive [activator, partial curve, poor fit]"
23,COc1ccc(CNC(=O)C(c2ccc(C)cc2)N(Cc2cccs2)C(=O)c2ccc3c(c2)OCCO3)cc1 (stereo not given),"inconclusive [activator, full curve, poor fit]"
24,Cc1cc(Cl)c(OCCOCCN2CCCCC2)c(Br)c1,"inconclusive [activator, full curve]"

row,Compound,Potency
1,CCC1(CC)Cc2ccccc2-c2nc(NN)[nH]c(=O)c21,inactive
2,Cc1cc(C)c(C2C3=C(Nc4c2c(C)nn4-c2ccccn2)c2ccccc2C3=O)c(C)c1 (stereo not given),"inconclusive [activator, partial curve]"
3,COc1ccc(C=O)c(OCc2cn(CC(=O)c3ccc(O)cc3)nn2)c1,"inconclusive [activator, full curve, poor fit]"
4,COc1ccc2c(c1)c(=O)oc1cc(OCC(=O)N3CCCC(C)C3)ccc12 (stereo not given),"inconclusive [activator, partial curve, poor fit]"
5,Cc1cc(C(=O)N/N=C/c2cccc([N+](=O)[O-])c2)c(C)n1-c1ccccc1,inactive
6,CCCCn1cnc2c(SCCc3ccccc3)nc(N)nc21,"inconclusive [activator, single point]"
7,C=CCOc1ccc(/C=N\NC(N)=S)cc1,"inconclusive [activator, partial curve, poor fit]"
8,CCOc1cc(/C=N/N=C/c2ccc(O)c(OCC)c2)ccc1O,inactive
9,COCCN1Cc2cccc(C(=O)Nc3ccccc3OC)c2C1=O,"inconclusive [activator, partial curve, poor fit]"
10,CC(C)c1ccc(NC(=O)CCCN2C(=S)NC(C)(C)CC2C)cc1 (stereo not given),"inconclusive [activator, single point]"
11,CSc1ccc(/C=C/C(=O)NC(=O)c2ccccc2O)cc1,"inconclusive [activator, single point]"
12,Cc1ccc(NC(=S)Nc2ccc(Cl)c(Cl)c2)c(OC(F)F)c1,"inconclusive [activator, single point]"
13,COc1cc(C2CC(=O)Nc3ccccc3S2)cc(OC)c1OC (stereo not given),"inconclusive [activator, single point]"
14,CC(C)n1c(O)c(N=NC(=O)c2ccccc2NS(=O)(=O)c2cccs2)c2ccccc21,"inconclusive [activator, partial curve, poor fit]"
15,Cc1ccc2c(c1)C(=O)CC(c1ccccc1)S2 (stereo not given),inactive
16,CCc1nc(SCc2ccc(OC)cc2)n[nH]1,inactive
17,CCOC(=S)SCC(=O)N1CCc2cc(OC)c(OC)cc2C1C1C(=O)CC(C)(C)CC1=O (stereo not given),"inconclusive [activator, partial curve, poor fit]"
18,C=CCNc1nc(N)c(C(=C(C#N)C#N)c2ccccc2)s1,active: 16.4 µM
19,COc1ccc(/C=N/NC(=O)c2sc(C)nc2C)cc1,"inconclusive [activator, single point]"
20,O=C1CC(C(=O)N2CCc3ccccc32)CN1c1ccc(F)cc1 (stereo not given),inactive
21,Cc1cc(C)c(C#N)c(SCC(O)COc2ccc(Br)cc2)n1 (stereo not given),"inconclusive [activator, single point]"
22,CC(C)C(C(=O)OCC(=O)c1cccc([N+](=O)[O-])c1)N1C(=O)[C@@H]2[C@H]3CC[C@H](C3)[C@@H]2C1=O (stereo not given in full),inactive
